The assay addresses his-tagged SARS-CoV-2 Spike receptor binding domain (RBD), expressed in the lab in 293F cells, coval (SARS-CoV-2). Nature of the assay: fluorescence microscopy, overlay of mCherry and FITC channels.

B1: slncRNA-PP7bsx14-tdPP7-mCherry granules (other)
chain: MGSSHHHHHHSSGLVPRGSHMLASKTIVLSVGEATRTLTEIQSTADRQIFEEKVGPLVGRLRLTASLRQNGAKTAYRVNLKLDQADVVDSGLPKVRYTQVWSHDVTIVANSTEASRKSLYDLTKSLVATSQVEDLVVNLVPLGRADPLASKTIVLSVGEATRTLTEIQSTADRQIFEEKVGPLVGRLRLTASLRQNGAKTAYRVNLKLDQADVVDSGLPKVRYTQVWSHDVTIVANSTEASRKSLYDLTKSLVATSQVEDLVVNLVPLGRPPVA[not shown - about 250 residues]
In the case of B1, the binding result was “no binding (tested: 842 nM protein, 112.8 nM slncRNA)”.

For the origin of these results see patent publication US20240218024A1 (TECHNION RESEARCH AND DEVELOPMENT FOUNDATION, published 2024).
